Source: PubChem BioAssay AID1347073 (National Center for Advancing Translational Sciences (NCATS), 2019)
Screen size: about 45,000 compounds; about 200 (0.44%) were called active. Not shown: some 7% with an inconclusive outcome. Calls come from the whole dose curve; as a rule, active = well fitted activation curve with a large enough effect; inconclusive = small, poorly fitted or top-dose-only effect; inactive = no such curve, though single readings can be large or run the other way. Some of the results follow.

Experiment: qHTS of TDP-43 Inhibitors: NCGC Sytravon Library Screen; note: 0% is about no effect; nearly all actives have a fitted effect of over 55% in size
Conditions: yeast TDP-43 toxicity rescue, BacTiter-Glo growth, 24 h; series mostly up to 46.1 µM; growth rescue (activation): at the top concentration
How it was run: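 TDP-43-expressing yeast, pregrown in raffinose, seeded at OD600 0.02 in galactose medium with compound for 24 hr at 30 deg C. Growth read by BacTiter-Glo luminescence, so rescue of toxicity appears as activation.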

SMILES | growth rescue (activation)
O=S(=O)(c1ccccc1)N(CC(O)CN1CCCC1)c1ccccc1 (stereo not given) | inactive: -7.86%
O=C(c1cccc(Br)c1)N1CCN(c2cnn(-c3ccccc3)c(=O)c2Cl)CC1 | inactive: 20.3%
CCOCCCNC(=O)c1cn(CC(C)C)c(=O)c2c1c1ccccc1n2C | inactive: 7.15%
Cc1ccc(S(=O)(=O)N(CC(=O)Nc2ccccc2C(=O)O)c2ccccc2C)cc1 | inactive: -2.12%
C=CCn1c(SCC(=O)NC2CCCCC2)nnc1-c1cccnc1 | inactive: 6.95%
O=C(NCc1ccccc1)NC(O)C(Cl)(Cl)Cl (stereo not given) | inactive: -10.6%
COCCNC(=O)C1(C)CCCN(Cc2ccc(-c3ccccn3)cc2)C1 (stereo not given) | inactive: 0.297%
Cc1ccc(C)n1-c1nccc(-c2ccco2)n1 | inactive: 28.1%
COc1cccc(OC)c1OCCN1CCC(C(=O)NC(c2ccc3c(c2)OCO3)c2ccccn2)CC1 (stereo not given) | inactive: -8.67%
O=C(NCc1ccc(Cl)cc1)c1nccnc1CO | inactive: 4%
N#C/C(=C\c1ccccc1)C(=O)Nc1cc(S(=O)(=O)N2CCOCC2)ccc1N1CCCC1 | inactive: -6.43%
CC(=O)Nc1ccc(/C=C2/Sc3ccccc3C2=O)cc1 | inactive: 0.867%
COc1cccc(NC(=O)c2cc(Cl)nnc2Cl)c1 | inactive: -7.07%
COc1ccc(S(=O)(=O)N2CCCC(C(=O)NCc3ccc(F)cc3)C2)cc1 (stereo not given) | inactive: 1.06%
Cc1ccc(C)c2[nH]c(=O)c(CN(CCCN(C)C)C(=O)NCc3ccccc3)cc12 | inactive: -9.42%
COc1ccc(-n2ccnc2CN2CCCC(CO)(Cc3cccc(OC)c3)C2)cc1 (stereo not given) | inactive: 6.49%
Cc1cc2oc(=O)cc(CN3CCCCC3C)c2cc1C(C)C (stereo not given) | inactive: 0.232%
O=C(Nc1nc2ccccc2s1)c1ccc(OCC2CCCO2)cc1 (stereo not given) | inactive: 26%
COc1ccc(NC(=O)c2nnn(CC(=O)Nc3cccc(C)c3C)c2N)c(OC)c1 | inactive: 3.9%
NC(=O)Nc1ccc(Cl)cc1 | inactive: 5.16%
CSc1ccccc1NC(=O)COC(=O)c1ccccc1Cc1ccccc1 | inactive: 2.33%
CCN(CC)c1ccc(N=C2C(=O)Nc3ccccc32)cc1 | inactive: -5.98%

SMILES | growth rescue (activation)
CCNC(=O)c1cc(Cl)ccc1OC | inactive: 22.3%
COc1nnc(-c2ccc(C)c(S(=O)(=O)NCC3CCCO3)c2)c2ccccc12 (stereo not given) | inactive: -8.58%
COCCCN1C(=O)C(=O)/C(=C(/O)c2ccc3c(c2)OCCO3)C1c1ccc(C(=O)OC)cc1 (stereo not given) | inactive: 4.17%
CCOc1ccc(CN2C(=O)C(=O)c3cccc(C)c32)cc1OC | inactive: -18.4%
COc1ccc(C(=O)NCC(=O)N2CCN(C(=O)c3ccco3)CC2)cc1[N+](=O)[O-] | inactive: -2.35%
Cc1cc(Br)ccc1N=C1NC(=O)CS1 | inactive: 11.3%
Cc1c(NC(=O)c2ccc(S(=O)(=O)N(C)c3ccccc3)cc2)c(=O)n(-c2ccccc2)n1C | inactive: -8.3%
COc1ccc(/C=C/C(=O)Nc2cccc(F)c2)cc1S(=O)(=O)N1CCOCC1 | inactive: 4.99%
CN(CCc1ccccn1)C(=O)CCC1CCCN(C(=O)NC2CCCCC2)C1 (stereo not given) | inactive: 3.84%
CC1CCN(C(=O)COC(=O)c2n[nH]c3ccccc23)CC1 | inactive: -19.3%
COCCNC(=O)CCn1nc(-c2ccc(C)cc2)ccc1=O | inactive: 8.69%
O=[N+]([O-])c1ccc(CN2C=NS(=O)(=O)c3ccccc32)cc1 | inactive: 6.32%
C=CCn1c(SCC(=O)Nc2ccc(O)cc2)nc2sc(C)c(C)c2c1=O | inactive: 14.9%
O=C(O)c1cccc2c(-c3ccccc3)c(-c3ccccc3)[nH]c12 | inactive: 13.7%
O=C(CSCc1ccc(Cl)cc1)Nc1ccc(S(=O)(=O)N2CCOCC2)cc1 | inactive: 19.5%
CC1(C(=O)NS(=O)(=O)c2ccccc2)CCN1C(=O)Cc1cccs1 (stereo not given) | inactive: -4.11%
CCCCCOc1ccccc1CN1C(=O)C(=O)c2cc(C)ccc21 | inactive: -7.23%
COc1cccc(CNC(=O)COC(=O)c2nn(C)c(=O)c3ccccc23)c1 | inactive: 1.39%
COc1ccccc1NC(=O)COC(=O)C1=NN(c2ccccc2)C(=O)CC1 | inactive: -3.49%
CC1CCN(C(=O)c2ccc3c(c2)NC(=O)CN3)CC1 | inactive: 6.03%
O=C(O)CCc1ccc(-c2ccc(F)cc2)n1CC(=O)O | inactive: 6.81%
COc1ccc(Cn2c(-c3ccc(OC)cc3)n[nH]c2=S)cc1 | inactive: 14.8%

SMILES | growth rescue (activation)
O=[N+]([O-])c1ccc2nc(CCCO)[nH]c2c1 | inactive: -14.3%
CCOC(=O)N(C)c1c(CC)nc2c(OCc3ccc(Cl)cc3Cl)cccn12 | inactive: -3.17%
CN(c1ccc(C(=O)NCCSC(C)(C)C)cc1)S(=O)(=O)c1ccccc1 | inactive: 16.4%
O=C(/C=C/c1cccnc1)c1ccc(F)c(F)c1 | inactive: -10.1%
COCCSc1ccccc1C(=O)Nc1ccc(Cl)cc1 | inactive: -4.77%
COc1ccc(Nc2nc3ccc(C)cn3c(=O)c2/C=N/O)cc1 | inactive: -1.24%
O=C(Cc1coc2ccc3ccccc3c12)Nc1nnc(C2CC2)s1 | inactive: 1.03%
CCN(CC)c1ccc(C=C2C(=O)OC(C)(C(C)(C)C)OC2=O)cc1 (stereo not given) | inactive: 2.53%
Cc1c(Cl)cccc1NC(=S)/C(=C(\[O-])c1ccc(Cl)s1)[n+]1ccccc1 | inactive: 23.9%
O=S(=O)(/N=C(/Nc1cccc2ccccc12)c1ccccc1)c1ccccc1 | inactive: 24.1%
CC(C)CNC(=O)C1(C)CCCN1C(=O)c1cccnc1Oc1ccccc1 (stereo not given) | inactive: -4.08%
CCCCCSc1nnc(-c2ccccc2NC(C)=O)c(=O)[nH]1 | inactive: -19.3%
COc1ccc(C(=O)NC(=S)Nc2cccnc2)cc1Cl | inactive: -29.6%
Cc1cc(C)cc(NC(=O)C(NCC2CCCO2)c2ccccc2)c1 (stereo not given) | inactive: 10.7%
Cc1ccc(C(OC(=O)c2ccco2)C(=O)NC2CCCC2)cc1 (stereo not given) | inactive: 23.8%
CCOC(=O)C1C(c2cccc([N+](=O)[O-])c2)C2C(=O)NN=C2CC1(C)O (stereo not given) | inactive: 11.3%
O=C(O)c1nn(CC(=O)N(C2CCCCC2)C2CCCCC2)c(=O)c2ccccc12 | inactive: 4.5%
Cc1cc(C)nc(SCC(=O)N/N=C/c2ccc3c(c2)OCO3)n1 | inactive: 23.4%
Cc1c(Cl)cnc(NC(=O)COC(=O)c2cccc(S(=O)(=O)N3CCc4ccccc4C3)c2)c1Cl | inactive: 10.2%
O=C(C1CC(=O)N(c2ccc(Cl)cc2)C1)N1CCCCCC1 (stereo not given) | inactive: -8.06%
O=C(CS(=O)(=O)c1ccccc1)Nc1ccccn1 | inactive: 3.91%
Cc1cc(C)c(S(=O)(=O)N(C)CC(=O)NCCCn2ccnc2)c(C)c1 | inactive: -4.42%

SMILES | growth rescue (activation)
Cc1ccc(-c2csc(NC(=O)COc3ccc(N(C)S(=O)(=O)c4ccc(C)cc4)cc3)n2)cc1 | inactive: -16.7%
C=CCc1cccc2cc(C(=O)Nc3ccccc3C(=O)O)c(=O)oc12 | inactive: -23.4%
COc1ccc(COC(=O)CCc2cc(OC)c(OC)c(OC)c2)cc1F | inactive: 5.09%
O=C(CCc1nnc(Cc2ccc(-c3ccccc3)cc2)o1)NCC1CC1 | inactive: 10.7%
Cc1ccc(NC(=O)CN(C)C(=O)c2ccccn2)cc1 | inactive: 25.2%
O=C(Nc1ccccc1OC(F)(F)F)c1ccc([N+](=O)[O-])cc1 | inactive: 1.03%
O=C(CC12CC3CC(CC(Br)(C3)C1)C2)Nc1nncs1 | inactive: 4.55%
Cc1ccc(NC(=O)CN(C)CCOc2ccccc2)c([N+](=O)[O-])c1 | inactive: -7.64%
CC(/C=N/n1c(-c2ccco2)n[nH]c1=S)=C\c1ccco1 | inactive: 5.84%
Cc1ccc(CNC(=O)C2CCN(C(=O)Nc3ccccc3)CC2)cc1 | inactive: 2%
c1ccc2c(SCc3cn4ccccc4n3)nncc2c1 | inactive: -2.16%
CCc1c(C(C)=O)oc2ccc3c(C)cc(=O)oc3c12 | inactive: -21.8%
Nc1nc(SCC(=O)c2ccc(Br)s2)n[nH]1 | inactive: 7.87%
CCOc1ccccc1NC(=O)CCNC(=O)Cn1ccc2ccccc2c1=O | inactive: 2.69%
Cc1oc2c(C)c(O)ccc2c(=O)c1N1C(=O)c2ccccc2C1=O | inactive: 19.7%
Cc1nnc(SC(C)C#N)n1-c1ccccc1 (stereo not given) | inactive: 1.24%
C/C(=N\NC(=O)Cc1c(Cl)cccc1Cl)c1cccnc1 | inactive: 3.31%
CCOC(=O)c1cc(-c2ccccc2)sc1NC(=O)CCN1C(=O)c2ccccc2C1=O | inactive: 8.82%
O=C(CSc1nnc2ccccn12)NNC(=O)c1cccc(Cl)c1 | inactive: 5.94%
O=C(O)c1cccnc1SC1CC(=O)N(c2ccc(OC(F)F)cc2)C1=O (stereo not given) | inactive: -6%
CN(C)C(=O)c1ccc(Nc2nc(-c3cccs3)nc3ccccc23)cc1 | inactive: 6.57%
Fc1cc(F)cc(NC(=S)Nc2ccccc2N2CCOCC2)c1 | inactive: 5.21%

SMILES | growth rescue (activation)
Cc1ccccc1OCCOCCN1CCCCCC1 | inactive: 0.348%
CC(Oc1ccc(C#N)cc1)C(=O)Nc1ccc(-n2cnnn2)cc1 (stereo not given) | inactive: -12%
Cc1ccc(S(=O)(=O)Nc2ccc(NC(=O)/C=C/C(=O)O)cc2)cc1 | inactive: 3.84%
O=C(CNCc1ccco1)Nc1ccc(Oc2ccccc2)cc1 | inactive: 6.67%
O=C(NCC(=O)N(c1ccccc1)C(C(=O)NCC1CCCO1)c1ccccc1)c1cccs1 (stereo not given) | inactive: 7.42%
CCCSc1ncc(Cl)c(C(=O)N2CCN(c3cccc(Cl)c3)CC2)n1 | inactive: 25.3%
O=C(C1CC(=O)N(c2ccc(F)cc2)C1)N1CCN(c2ccccc2)CC1 (stereo not given) | inactive: 0.0691%
Cc1csc(-c2cnn(-c3ccccc3)c2NC(=O)c2cccc(F)c2)n1 | inactive: 24.7%
CCn1c(CNC(=O)c2ccccc2Br)nnc1SCC(=O)NC1=NCCS1 | inactive: 0.709%
O=C(c1ccc2snnc2c1)N1CCSCC1 | inactive: 14.2%
CCOc1ccc(CCNC(=O)CCc2nc3ccccc3[nH]2)cc1OCC | inactive: -3.66%
CCC(=O)Nc1nc2ccccc2n1CCN1CCOCC1 | inactive: 30.2%
COC(=O)[C@H](CCSC)NC(=O)Nc1cc(OC)cc(OC)c1 | inactive: 2.98%
COc1ccc2c(=O)c3c(=O)n(-c4ccccc4)c(-c4ccco4)nc3oc2c1 | inactive: -12.1%
O=C(O)CCCCCNC(=O)CSc1nnc(-c2ccco2)n1-c1ccccc1 | inactive: 7.04%
O=C(CSc1ccc(Cl)cc1)NN=C1CCCCCC1 | inactive: 8.3%
CCOc1cc(/C=C2\C(=N)N3N=C(S(C)(=O)=O)SC3=NC2=O)ccc1OCCOc1cccc(OC)c1 | inactive: 17.6%
O=C(COc1ccccc1F)NCCc1ccc2c(c1)OCCO2 | inactive: 6.78%
CCOc1cc(NC(=S)NCCCN(C)C)c(OCC)cc1NC(=O)C1CC1 | inactive: 3.93%
CCCCC(CC)CNC(=O)CCCCn1c(=O)[nH]c2ccsc2c1=O (stereo not given) | inactive: 33.7%
N=C1C(c2nc3ccccc3s2)=C(O)CN1c1ccccc1 | inactive: 7.35%
FC(F)(F)c1cc(-c2ccco2)nc(NCc2cccnc2)n1 | inactive: 17.1%
